Reference: publication PMC4336329 (PLoS ONE, 2015)
Screen size: about 310,000 compounds; about 14,000 (4.5%) showed an effect of 50% or more. Effects have a minus sign here. Some of the results follow.

molecular target: human ether-à-go-go-related gene (hERG) potassium channel (human, UniProt Q12809); assay: primary screen, population patch clamp on CHO cells stably expressing hERG
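Further: peak tail current of the secondary pulse compared with the same well before compound.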

Chain of human ether-à-go-go-related gene (hERG) potassium channel (Q12809 whole entry, looked up): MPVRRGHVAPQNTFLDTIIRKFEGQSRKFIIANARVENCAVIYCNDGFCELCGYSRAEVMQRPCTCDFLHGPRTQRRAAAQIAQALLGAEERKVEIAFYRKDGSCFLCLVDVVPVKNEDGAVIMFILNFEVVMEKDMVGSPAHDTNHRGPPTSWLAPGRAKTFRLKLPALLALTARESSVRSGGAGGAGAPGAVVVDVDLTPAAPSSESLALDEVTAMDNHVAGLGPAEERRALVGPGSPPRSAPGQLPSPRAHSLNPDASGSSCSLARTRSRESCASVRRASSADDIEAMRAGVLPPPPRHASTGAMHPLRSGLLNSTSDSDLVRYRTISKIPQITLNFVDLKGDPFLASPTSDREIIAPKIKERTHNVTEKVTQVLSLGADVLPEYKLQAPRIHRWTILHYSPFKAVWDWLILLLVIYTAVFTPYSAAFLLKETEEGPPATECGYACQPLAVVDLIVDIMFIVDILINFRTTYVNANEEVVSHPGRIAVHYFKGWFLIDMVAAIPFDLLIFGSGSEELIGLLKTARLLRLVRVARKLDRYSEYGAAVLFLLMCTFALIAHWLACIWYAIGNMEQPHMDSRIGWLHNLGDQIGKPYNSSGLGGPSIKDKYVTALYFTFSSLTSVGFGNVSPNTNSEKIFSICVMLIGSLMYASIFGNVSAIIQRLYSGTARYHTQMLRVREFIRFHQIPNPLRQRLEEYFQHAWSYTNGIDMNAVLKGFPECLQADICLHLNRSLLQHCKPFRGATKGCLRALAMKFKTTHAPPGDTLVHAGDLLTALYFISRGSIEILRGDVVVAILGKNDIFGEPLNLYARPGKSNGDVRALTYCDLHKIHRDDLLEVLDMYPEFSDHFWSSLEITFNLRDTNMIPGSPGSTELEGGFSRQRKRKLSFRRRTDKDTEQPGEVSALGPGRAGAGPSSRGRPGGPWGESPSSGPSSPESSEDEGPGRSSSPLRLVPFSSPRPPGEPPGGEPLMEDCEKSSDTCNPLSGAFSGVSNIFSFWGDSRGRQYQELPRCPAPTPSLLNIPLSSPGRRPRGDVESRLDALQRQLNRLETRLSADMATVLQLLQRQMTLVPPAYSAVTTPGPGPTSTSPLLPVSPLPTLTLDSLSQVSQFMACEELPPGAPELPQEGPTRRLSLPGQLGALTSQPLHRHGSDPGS

Row | Compound | hERG current change (%, negative = inhibition) at 10uM [%]
1 | Cc1ccc(C)c(NS(=O)(=O)c2cc(C(=O)NCCC3=CCCCC3)ccc2C)c1 | -15.6
2 | CCOC(=O)c1cc2cc(CC(=O)c3ccc(OCC)cc3O)ccc2o1 | 9.22
3 | COc1ccc(NC(=O)/C(=C\c2ccc3c(c2)OCO3)NC(C)=O)cc1 | 0.111
4 | Cc1ccc(C)c(OCCNc2ncccc2[N+](=O)[O-])c1 | 2.67
5 | CCOc1ccc(NC(=O)CCC(=O)n2nc(C)cc2C)cc1 | -11.8
6 | COc1ccc(C(c2nnnn2C(C)(C)C)N2CCN(C(=O)c3ccco3)CC2)cc1 (stereo not drawn) | -37.4
7 | COC(=O)C1CCN(c2ccc([N+](=O)[O-])cc2)CC1 | -21.7
8 | CCOc1ccc(NC(=O)NCCCN2CCCC2)cc1 | -1.89
9 | COc1ccc(C(=O)COC(=O)c2ccc(NC(=O)c3ccccc3)cc2)cc1 | -4.73
10 | S=c1[nH]c(-c2ccccc2)cn1/N=C/c1cccc2ccccc12 | 24.1
11 | Cc1noc(C)c1S(=O)(=O)N(CC(=O)Nc1ccc2c(c1)OCO2)c1ccc(C(C)C)cc1 | 10.2
12 | Cc1ccc(C(=O)NC2=NCCS2)cc1 | 4.59
13 | COc1ccc(C(=O)NC2CCCc3c2cnn3-c2ccccc2F)o1 (stereo not drawn) | -3
14 | CCOc1ccc(N=C(/C(C(=O)C(=O)N2CCOCC2)=C(/O)c2ccccc2)c2ccccc2)cc1 | 15.6
15 | CC(/C=C/C1(O)C(C)CC(=O)CC1(C)C)OC1OC(CO)C(O)C(O)C1O (stereo not drawn) | 4.5
16 | CCOC(=O)COc1c(Br)cc(C2NC(=O)NC(C)=C2C(C)=O)cc1OC (stereo not drawn) | 7.28
17 | O=C(COC(=O)CC1CCCC1)Nc1cccc(F)c1 | -1.79
18 | CCOc1ccc(C(=O)Nc2ccc(S(=O)(=O)N3C[C@@H]4C[C@@H](C3)c3cccc(=O)n3C4)cc2)cc1 | -10.8
19 | CC(C)OC(=O)CSc1nnc(-c2ccc(Cl)cc2Cl)n1N | -4.95
20 | COCCn1c(=N)c(C(=O)NCc2ccco2)cc2c(=O)n3cc(C)ccc3nc21 | -82.1
21 | O=C(CC1C(=O)N(c2ccccc2)C(=O)N1C1CCCCC1)Nc1ccccc1 (stereo not drawn) | 14.1
22 | COc1cc(/C=N\n2nnnc2N)ccc1OCc1ccc(F)cc1 | -15.4
23 | NC(=O)C1CCN(C(=O)c2ccc(-c3ccccc3Cl)o2)CC1 | -12.8
24 | CCOP(=O)(Cc1cc(C#N)oc1C)OCC | -2.98
25 | COc1ccccc1/C=N\Nc1cn[nH]c(=O)c1Cl | 10.4
26 | COC(=O)CNC(=O)/C=C/c1ccc(OC)cc1 | 15.2
27 | COc1ccc(C(CC(=O)N2CCCCC2)NC(=O)C(F)(F)F)cc1 (stereo not drawn) | -0.0719

Row | Compound | hERG current change (%, negative = inhibition) at 10uM [%]
28 | COc1ccccc1CNC(=O)COC(=O)c1cc(-c2ccco2)nc2ccccc12 | 7.57
29 | COc1ccc(/C=C/C(=O)N2CCN(S(=O)(=O)/C=C/c3ccccc3)CC2)cc1OC | 7.66
30 | Cc1cnc(C)c(N2CCN(Cc3nc(-c4ccc(C)o4)oc3C)CC2)n1 | -9.62
31 | CCOc1ccccc1NC(=O)N1CCN(S(C)(=O)=O)CC1 | 17.5
32 | O=C(NC1CCCCC1)N(Cc1nc2ccccc2c(=O)[nH]1)C1CCCC1 | -7.4
33 | COc1cccc(CNC(=O)CSc2ccc(-c3cccs3)nn2)c1 | 1.8
34 | O=C(Cc1ccc(Cl)cc1)N/N=C/c1ccncc1 | -27.3
35 | CCSc1ncc(Cl)c(C(=O)Nc2ccccc2C)n1 | 12.6
36 | Cc1cn(CCC(=O)Nc2ccc(N3CCOCC3)cc2)c2ccccc12 | -29.6
37 | NC(=O)c1ccc(NC(=O)COC(=O)c2n[nH]c3ccccc23)cc1 | 0.681
38 | CCN(C(=O)COC(=O)/C(C#N)=C/c1ccc(OC)cc1)C1CCS(=O)(=O)C1 (stereo not drawn) | 1.49
39 | COc1ccc(/C=C2/C(=O)N(c3c(F)c(F)c(F)c(F)c3F)N=C2C)cc1 | 6.49
40 | CCN1CCN(C2CCCCC2NS(=O)(=O)c2ccc(Cl)cc2)CC1 (stereo not drawn) | -61.8
41 | COc1ccc(/C=N/Nc2nc(C)cc(-c3ccccc3)n2)cc1OC | -16.6
42 | CCN1CCN(c2oc(COc3ccc(Cl)cc3)nc2C#N)CC1 | -77
43 | O=S(=O)(Cc1ccc(Cl)cc1)C1CCCCC1O (stereo not drawn) | 4.77
44 | COc1cc2cc(CN(Cc3nnnn3Cc3ccco3)C3CCCCC3)c(=O)[nH]c2cc1OC | -19.9
45 | CCn1c2ccccc2c2cc(NC(=O)CSc3nnc(-c4ccc(OC)c(OC)c4)n3N)ccc21 | 0.254
46 | COc1ccc(CN2[C@@H](CC(=O)O)c3cc(F)ccc3S2(=O)=O)cc1 | 14.4
47 | O=c1nc(N/N=C/c2ccccn2)cn[nH]1 | 7.23
48 | CCOc1ccc(Br)cc1S(=O)(=O)Nc1ccc(C(=O)OCC(=O)N(C)c2ccccc2)cc1 | 12.7
49 | Cc1ccc(C)c(N(CC(=O)NCc2ccc3c(c2)OCO3)C(=O)CCC(=O)Nc2ccccn2)c1 | -19
50 | COc1cccc(-c2c(-c3cc(OC)cc(OC)c3)n(C)c3ccc(-c4cccc5[nH]ccc45)cc23)c1 | 12.2
51 | Cc1ccc2nc(Nc3ccc(C)c(Cl)c3)c3nncn3c2c1 | 21
52 | CC(=O)c1c(C)[nH]c(C(=O)Nc2cccc(S(=O)(=O)N(C)c3ccccc3)c2)c1C | -11.3
53 | Cn1c(CN2CCCC2)nc2cc(NS(=O)(=O)c3ccccc3)ccc21 | 1.49
54 | O=c1c(Cl)nc2cc(Cl)ccc2n1CCNc1ncc(C(F)(F)F)cc1Cl | 20.4
